Results: paper PMC10914734 (Signal Transduction and Targeted Therapy, 2024)

Assays:
Human Thrombin = Human Thrombin (Homo sapiens, UniProt P00734); experiment: Protease panel, thrombin inhibition; details: at a concentration of 20 μM; read-out: Inhibition rate, Human Thrombin
Method: Enzymatic activity and inhibition assays of both compounds against the remaining proteases in Supplementary Table S2 were measured by a commercial company.

Human CAPN1 = biological target: T1, Human CAPN1 (Homo sapiens, UniProt P07384); experiment: biochemical
T1 sequence (P07384 2-714 limits assumed): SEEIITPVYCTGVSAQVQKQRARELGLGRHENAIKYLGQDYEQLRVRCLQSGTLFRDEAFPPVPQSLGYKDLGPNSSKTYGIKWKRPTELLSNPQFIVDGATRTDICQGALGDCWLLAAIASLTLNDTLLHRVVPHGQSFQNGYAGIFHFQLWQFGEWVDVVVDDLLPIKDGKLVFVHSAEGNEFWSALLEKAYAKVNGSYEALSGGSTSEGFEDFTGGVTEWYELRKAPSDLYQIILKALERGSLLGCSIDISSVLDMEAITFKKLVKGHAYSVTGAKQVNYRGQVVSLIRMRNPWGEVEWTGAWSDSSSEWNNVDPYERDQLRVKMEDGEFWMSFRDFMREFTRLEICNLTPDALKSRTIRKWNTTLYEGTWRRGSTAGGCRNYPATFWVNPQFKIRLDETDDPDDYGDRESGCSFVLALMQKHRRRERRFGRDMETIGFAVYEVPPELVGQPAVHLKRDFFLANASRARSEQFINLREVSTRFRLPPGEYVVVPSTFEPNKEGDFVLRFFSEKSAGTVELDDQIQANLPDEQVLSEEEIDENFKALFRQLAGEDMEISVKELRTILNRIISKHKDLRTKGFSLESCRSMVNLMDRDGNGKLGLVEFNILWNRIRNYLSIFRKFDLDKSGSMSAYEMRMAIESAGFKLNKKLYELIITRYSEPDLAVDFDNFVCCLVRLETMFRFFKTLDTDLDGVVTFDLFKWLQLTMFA
T1 sequence (P04632 1-268 partner): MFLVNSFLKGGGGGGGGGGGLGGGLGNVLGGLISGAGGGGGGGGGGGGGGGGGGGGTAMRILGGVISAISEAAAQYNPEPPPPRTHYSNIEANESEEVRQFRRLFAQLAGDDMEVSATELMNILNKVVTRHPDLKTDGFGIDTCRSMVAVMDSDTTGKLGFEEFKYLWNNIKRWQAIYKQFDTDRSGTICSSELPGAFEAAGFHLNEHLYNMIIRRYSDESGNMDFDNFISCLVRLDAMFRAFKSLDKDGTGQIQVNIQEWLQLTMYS

| Compound | inhibition at 20 µM (Human Thrombin) | IC50 (Human CAPN1) |
| --- | --- | --- |
| O=C(NCc1ccccc1)C(=O)[C@H](C[C@@H]1CCCNC1=O)NC(=O)[C@H](CC1CCCCC1)NC(=O)c1cc2ccccc2o1 [14b, N-((S)-1-(((S)-4-(benzylamino)-3,4-dioxo-1-((S)-2-oxopiperidin-3-yl)butan-2-yl)amino)-3-cyclohexyl-1-oxopropan-2-yl)benzofuran-2-carboxamide] | 4 ± 1% | 0.348 ± 0.034 µM |
| O=C(NCc1ccccc1)C(=O)[C@H](C[C@@H]1CCCNC1=O)NC(=O)[C@H](Cc1ccc(F)cc1)NC(=O)c1cc2ccccc2o1 [14a, N-((S)-1-(((S)-4-(benzylamino)-3,4-dioxo-1-((S)-2-oxopiperidin-3-yl)butan-2-yl)amino)-3-(4-fluorophenyl)-1-oxopropan-2-yl)benzofuran-2-carboxamide] | 9 ± 3% | 0.375 ± 0.0498 µM |
